Experimental data from PubChem BioAssay AID1963576 (National Center for Advancing Translational Sciences (NCATS), 2024).
In all, about 46,000 compounds went through this assay and about 60 (0.1%) were called active. Not shown: some 3% with an inconclusive outcome. Calls follow the shape of the dose curve; as a rule, active = well fitted inhibition curve with a large enough effect; inconclusive = small, poorly fitted or top-dose-only effect; inactive = no such curve, though single readings can be large or run the other way. The list shows a part of the results.

Experiment: Primary qHTS assay for Inhibitors of ovarian cancer metastasis using an organotypic tumor microenvironment (TME) model. Also: nearly all actives have a fitted effect of over 65% in size.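 As to activity change, negative = inhibition: plate controls were DMSO wells for no effect and tomatine positive control wells for full effect.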
Details: SKOV3ip1-GFP adhesion/invasion on 3D omental model, fluorescence; series mostly up to 45.8 µM; activity change, negative = inhibition: at the top concentration
How it was run: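 Adhesion/invasion was scored as fixed GFP-labeled SKOV3ip1 cell counts (488/509 nm), normalized to DMSO and tomatine controls. Cancer cells in serum-free medium, with four compound doses (0.36-46 umol/L), sat 2 hr at RT then 16 hr at 37 C on a 48 hr fibroblast/mesothelial/ECM culture.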

outcome, inactive:
COc1ccc2c(CNCc3ccc(Cl)cc3)c(C(=O)O)n(Cc3ccccc3C)c2c1
O=C(NC1CC(=O)N(c2ccccc2)C1)C1CCCCC1 (centres undefined)
Cc1cc(C)cc(NC(=O)CSc2nccn2-c2ccccc2)c1
Cc1cccc(NC(=O)C2CCN(S(=O)(=O)c3cccc4nsnc34)CC2)c1C
CCN1CCN(C(c2ccc(OC)cc2)c2c(O)cc(C)n(CCOC)c2=O)CC1 (centres undefined)
Cc1cccc(CCNC(=O)c2cc3ccccn3n2)c1
Cc1ccc(-n2nc3c(=O)n(CC(=O)Nc4ccccc4F)nc(C)c3c2C)c(C)c1
COC(=O)c1ccc(Cl)cc1NC(=O)N1CC(C)Oc2ccccc21 (centres undefined)
CCN(CC)c1ccc(NC(=O)C(Cc2ccccc2)NS(=O)(=O)c2ccc(Br)s2)c(C)c1 (centres undefined)
Cc1nc(N2CCCC2)c2c(C(=O)Nc3cccc(C)c3C)c(C)oc2n1
COc1ccccc1N1CCN(C(=O)Cn2ncc3c(=O)oc4ccccc4c32)CC1
COc1cc(OC)c(NC(=O)COCc2cc(-c3cccs3)on2)cc1Cl
COc1ccccc1CCNC(=O)CCc1c(C)c2cc3c(C)coc3c(C)c2oc1=O
Cc1cccc(C(=O)N2CCc3cc(CNC(=O)CCc4ccccc4)ccc32)c1
COc1ccc(N2CCN(c3cc(C)nc4nc(-c5ccc(C)cc5)nn34)CC2)cc1
CCOCCOC(=O)c1ccc(NC(=O)/C=C/c2ccc(OC)c(OC)c2)cc1
COc1cc(NC(=O)CC2C(=O)N(c3cccc(C)c3)C(=O)N2Cc2cccs2)cc(OC)c1 (centres undefined)
Cc1ccc(C)c(N2CCN(c3nc4ccccc4c(=O)n3-c3ccccc3)CC2)c1
Cc1cc(C)c(S(=O)(=O)NCCc2csc3nc(-c4ccc(Cl)cc4)nn23)c(C)c1
CCOc1ccc2c(c1)c(=O)c(S(=O)(=O)c1ccc(Cl)cc1)cn2Cc1ccccc1C
CC(=O)Nc1ccc(S(=O)(=O)NCCS(=O)(=O)N2CCN(c3ccccc3F)CC2)cc1
Cc1ccc(C)c(CN2C(=O)c3ccccc3S(=O)c3ccc(C(=O)NCCC4=CCCCC4)cc32)c1 (centres undefined)

Activity change, negative = inhibition, inactive:
COc1ccc(N2CCN(CCCNC(=O)C3COc4ccc(OC)cc4C3)CC2)cc1 (centres undefined) 8.48%
Cc1cc(Br)ccc1NC(=O)c1cc2c(=O)n(C)c3cc(Cl)ccc3c2s1 -2.39%
COc1ccc(NC(=O)C2=C(C)Nc3nc(SCc4ccccc4C)nn3C2c2ccc(Br)cc2)cc1 (centres undefined) -0.276%
CSc1ccc(CCNc2ncnc3onc(C)c23)cc1 4.24%
Cc1cc(C)c2oc(C(=O)N(Cc3ccc(F)cc3)C3CCS(=O)(=O)C3)cc(=O)c2c1 (centres undefined) 10.3%
CN(C(=O)c1cc(-c2ccccc2O)on1)c1ccccc1 16.8%
COc1ccc(S(=O)(=O)N2CCC(c3ccncc3)CC2)cc1Cl -15.5%
COc1ccccc1NC(=O)c1c(NCc2sccc2C)sc2c1CCCCC2 -0.492%
CN(C(=O)Cn1c(=O)n(CCCS(=O)(=O)C2CCCCC2)c(=O)c2ccccc21)c1ccccc1 -3.69%
COc1ccc(C(CNC(=O)COc2ccc(C)cc2)N2CCCCC2)cc1 (centres undefined) -12.1%
CCOc1ccc(/C=C(\C#N)c2nc(-c3cc4ccccc4oc3=O)cs2)c(OCC)c1 -7.61%
CCOC(=O)c1c(C)oc2ccc(N(C(=O)Oc3ccccc3)S(=O)(=O)c3ccccc3)cc12 0.418%
Cc1cc(C)cc(N(CC(=O)Nc2cccc(C)c2C)S(=O)(=O)c2c(C)[nH]c(=O)[nH]c2=O)c1 -6.47%
COc1ccc(Cl)cc1NC(=O)Cn1c2ncccc2c(=O)n1-c1ccc(C)c(C)c1 -24.9%
COc1ccc(C2C=C(c3ccccc3)Nc3nc(NC(=O)c4ccc(C)cc4)nn32)cc1 (centres undefined) 0.205%
CCOc1cc(-c2nc(-c3ccc(-c4ccc(C)cc4)nc3OC)no2)cc(OCC)c1OCC 6.49%
O=C(Cn1c(=O)oc2ccccc21)NCc1cccc(Cl)c1 2.49%
COc1ccc2c(CNCc3ccc(C)o3)c(C(=O)O)n(Cc3ccccc3)c2c1 -2.6%
Cc1ccc(NC(=O)Nc2nnc(N(C)Cc3ccccc3)s2)cc1 -4.49%
Cc1cc(NS(=O)(=O)c2ccc(NC(=O)COc3ccc(Cl)cc3)cc2)nc(C)n1 3.31%
CCOC(=O)c1ccc(NC(=O)c2cc3cc(C)ccc3n2C)cc1 1.97%
O=c1ccn([C@@H]2O[C@H](CO)[C@H](O)[C@@H]2F)c(=O)[nH]1 2.31%
CC(=O)Nc1cccc(NC(=O)Cn2cnc3c2c(=O)n(C)c(=O)n3C)c1 3.13%
O=C(Nc1ccc(C(=O)OCc2cc(=O)n3nc(C4CC4)sc3n2)cc1)c1ccc(F)cc1 6.02%
Cc1cccc(N2CCN(S(=O)(=O)c3ccc4c(c3)CCCN4C(=O)C3CCC3)CC2)c1C -4.52%
COc1ccc(S(=O)(=O)N(CC(=O)NCc2ccccc2OC)c2ccc(C)cc2)cc1 16.1%
CCOc1ccccc1N(C)C(=O)Cn1cnc2sc(C)c(S(=O)(=O)N3CCC(C)CC3)c2c1=O 12.7%
COc1ccc(CCNCc2c(C(=O)O)c(C)n(Cc3ccccc3C)c2C)c(OC)c1 7.34%
Cc1nn(CCCC(=O)Nc2ccccc2C(F)(F)F)c(=O)c2c1sc1ccccc12 11.6%
O=C(Cn1c(=O)n(Cc2ccco2)c(=O)c2oc3ccccc3c21)Nc1ccc(F)cc1F 1.51%
CN(C)CCN(Cc1ccco1)S(=O)(=O)c1cc2c(cc1Cl)NC(=O)CO2 -6.45%
O=C(NCCO)C(=O)Nc1c2c(nn1-c1ccc(F)cc1)CSC2 -1.46%
Cn1c(=O)n(C)c2cc(NS(=O)(=O)c3ccccc3)c(NCc3ccccc3)cc21 1.15%
CCC(Sc1nnc(C)n2c1cc1occc12)C(=O)Nc1ccccc1F (centres undefined) -8.31%
COc1cccc(NC(=O)Nc2cc(-c3cn4cccnc4n3)ccc2C)c1 0.437%
COCc1cc(C)n(CC(=O)Nc2ccc(NC(C)=O)cc2)c(=O)c1C#N -11.5%
CCN(CC)C(=O)Cn1cc(SCC(=O)Nc2cccc(C)c2)c2ccccc21 -8.23%
CC(C)OCCCN(Cc1ccco1)C(=O)c1cc2c(s1)-c1ccccc1OC2 1.31%
COc1ccccc1CNC(=O)CN1C(=O)CSc2ccc(S(=O)(=O)N3CCCC3)cc21 -20.2%
COC(=O)c1cc2oc3ccccc3c2n1CC(=O)Nc1ccc(OC)c(OC)c1OC -9.07%
Cc1ccc(-c2noc(CNC(=O)c3ccc(C(C)(C)C)cc3)n2)cc1 -10.6%
CC(C)Oc1ccc(CNC(=O)C2CCN(C(=O)c3sccc3-n3cccc3)CC2)cc1 -6.59%
Cc1ccc(Cl)cc1NC(=O)N1CCN(C)c2ncccc21 8.62%
CC1=C(C#N)C(NC(=O)c2cccc(Cl)c2)(C(F)(F)F)C(=O)N1 (centres undefined) -2.33%
COc1ccccc1-c1noc(-c2ccc(N3CCN(c4ccccc4)CC3)c([N+](=O)[O-])c2)n1 9.84%
COc1ccc(Nc2c(-c3cc(Br)ccc3O)nc3ncccn23)cc1OC -15.4%
Cc1cccc(C)c1-n1ncc(C(=O)Nc2ccc3c(c2)OCCO3)c1C1CCN(C(=O)OC(C)(C)C)CC1 6.58%
Cc1ccc(S(=O)(=O)c2cn(C)c3cc(N4CCN(C)CC4)c(F)cc3c2=O)cc1 15.6%
CCc1cc2c(cc3c(=O)n(CC(=O)N4CCN(c5cc(Cl)ccc5C)CC4)ncn32)s1 34.3%
O=C(CSc1ncc2c(n1)-c1ccccc1N(Cc1ccc(F)cc1)S2(=O)=O)c1ccc(Cl)cc1 11.8%
COc1ccccc1N1CCN(S(=O)(=O)c2c(C)sc3ncn(CC(=O)N(C)c4ccc(C(C)C)cc4)c(=O)c23)CC1 9.09%
CNS(=O)(=O)c1ccc(OC)c(-c2nnc3c4ccccc4c(C)nn23)c1 -2.82%
Cc1ccc(NCc2cccn2-c2nnc(N3CCC(C(=O)NCc4ccc(OC(C)C)cc4)CC3)s2)cc1 -10%
CCS(=O)(=O)N1CCc2cc(C(=O)NCCc3ccc(OC)c(OC)c3)ccc21 -3.91%
COc1cccc(C(=O)Nc2ccc(S(=O)(=O)N(Cc3ccccc3)c3ccccc3)cc2)c1 -8.37%
Cc1ccc(C2CCN(C(=O)Nc3ccc(C)c(C)c3)C2)cc1 (centres undefined) 1.67%
CC(C)Oc1ccc(CNC(=O)Cn2c(-c3cccs3)cc3ccccc32)cc1 6.71%
Cc1ccc(C(=O)Nc2ccc3[nH]c(=O)c(=O)[nH]c3c2)cc1 13.3%
Cc1ccc(NC(=O)c2sc3ncnc(N(C)C4CCCCC4)c3c2C)cc1 8.81%
O=c1c2c3c(sc2n(Cc2ccc(F)cc2Cl)c(=O)n1-c1ccc(Cl)cc1)CCC3 -2.41%
CC(=O)c1ccc(N2CCN(C(=O)C3CCN(S(=O)(=O)c4c(C)noc4/C=C/c4ccccc4F)CC3)CC2)cc1 -6.76%
COc1ccc(NC(=O)c2ccc(NC(=O)CCS(=O)(=O)c3cccs3)cc2)cc1 -19.9%
COc1cccc(Nc2nc3ccc(C(=O)c4ccccc4)cc3n3c(C)nnc23)c1 -13.4%
CCOc1ccc2cc(-c3nnc(Nc4ccc(C)cc4)s3)c(=O)oc2c1 8.22%
Cc1ccccc1OCc1ccc(-c2nc(C#N)c(N3CCC(C(N)=O)CC3)o2)o1 14.3%
Cc1ccccc1-c1nc(SCC(=O)N(C)c2ccccc2)c2c(=O)n(C)c(=O)n(C)c2n1 3.31%
COc1ccc(CCC(=O)NCCc2csc(-c3cccc(C)c3)n2)cc1 22.4%
Cc1ccccc1NS(=O)(=O)c1nnc(NC(=O)c2ccco2)s1 25.7%
CCOC(=O)c1c(S(=O)(=O)NCC(=O)N(C)c2ccc(C)cc2)c(C)n(C)c1C 1.11%
O=C(Nc1ccc(Cl)c(-c2nc3cc(Cl)ccc3o2)c1)c1cc2ccccc2o1 -2.87%
COc1cc(NC(=O)CC(c2cccs2)N2Cc3ccccc3C2=O)cc(OC)c1OC (centres undefined) -3.94%
CCOC(=O)c1cc(C)n(CC2CCC(C(=O)Nc3cc(OC)cc(OC)c3)CC2)c1C (centres undefined) -12.2%
